Measurements: PubChem BioAssay (Tox21)
Several values for one entry are separate records, joined by “and”; a condition that tells them apart may be missing. Identical values can stand only once. Inconclusive means that the source gave no clear call. Such entries were picked first, then a sample of the others. Where the call is inconclusive, the potency comes from a doubtful curve fit. Activity calls are given as the source filed them. The call rests on the fitted dose curve; in most records, active means well fitted cell-killing curve with a large enough effect in the repeat runs; inconclusive means weak or mixed curves, or effect the other way; inactive means no such curve, though single readings can be large or run the other way.

assay: qHTS assay to identify small molecule agonists of the RXR signaling pathway - cell viability counter screen (AID 1159529); settings: RXR-alpha-bla HEK293T viability, CellTiter-Glo, 16 h; series mostly up to 76.8 µM; activity change, negative = cytotoxicity: at the top concentration; further: nearly all actives have a fitted effect of over 50% in size
From the text: National Center for Advancing Translational Sciences [NCATS]
NIH Chemical Genomics Center [NCGC]
U.S. Environmental Protection Agency [EPA]
National Institutes of Environmental Health Sciences [NIEHS]
National Toxicology Program [NTP]
U.S. Food and Drug Administration [FDA]
The Retinoid X receptor (RXR), a nuclear hormone receptor expressed in liver, spleen, placenta, epidermis, central nervous system. These receptors are able to form homo and heterodimers with other nuclear receptors and due to this heterodimerizing ability, RXR functions as master regulators producing diverse physiological effects. Three subtypes of RXR exist; alpha, beta and gamma. Retinoid X receptor alpha (RXR-alpha) has potential roles in metabolic signaling pathways, skin alopecia, dermal cysts, cardiac development, insulin sensitization etc. Therefore screening environmental chemicals on RXR-alpha signaling can be used for the studies focused on such therapeutic applications. For quantification of RXR-alpha ligands signaling, GeneBLAzer RXR alpha-UAS-bla HEK 293T (Life Technologies, Carlsbad, CA) cells containing a beta-lactamase reporter-gene under control of Retinoid X receptor-alpha response element were used to screen Tox21 10K library. The cytotoxicity of the Tox21 compound library against the RXR-alpha HEK 293T cell line was tested in parallel by measuring cell viability using CellTiter-Glo assay (Promega Corporation, Madison, WI) in the same wells.
Tox21 Assay Protocol Summary:
RXR-alpha HEK 293T cells were dispensed at 2,000 cells/6 uL of assay medium containing 2% charcoal-stripped FBS using a Multidrop Combi (ThermoFisher Scientific, Waltham, MA) dispenser. The assay was performed in black wall/clear-bottom 1536-well plates (Greiner Bio-One North America Inc. Monroe, NC). Tetraoctyl ammonium bromide was used as a positive control in the cytotoxicity screen. After the assay plates were incubated at 37 C and 5% CO2 for 5 hr, 23 nL of compounds dissolved in DMSO, positive control or DMSO only were transferred to the assay plate by a Pintool station (Kalypsys, San Diego, CA). The assay plates were incubated at 37 C and 5% CO2 for 16 hr. One uL of LiveBLAzer B/G FRET substrate (Life Technologies) was added using a Flying Reagent Dispenser (FRD) (Aurora Discovery, San Diego, CA) and the plates were incubated at room temperature for 2 hr. Fluorescence intensity (405 nm excitation, 460/530 nm emission) was measured using an Envision plate reader (PerkinElmer, Shelton, CT). For cytotoxicity, 4 uL/well of CellTiter-Glo reagent was added into the assay plates using an FRD. After 30 min incubation at room temperature, the luminescence intensity was measured using a ViewLux plate reader (PerkinElmer).
On the % scale 0 is the no-effect control and ±100 the full control effect; potency means the concentration at half of the fitted maximal effect; tags describe the fitted curve by direction and shape.

Compound	activity change, negative = cytotoxicity	Potency
Nc1c(Cl)cc(Cl)cc1Cl	inactive: 0.4%	–
Cc1cc2c(OCC(CNC(C)(C)C)OC(=O)c3ccccc3)cccc2[nH]1 (stereo not given)	inactive: 0.083% [at 35.3 µM]	–
Nc1cc(S(=O)(=O)O)cc2cc(S(=O)(=O)O)cc(O)c12	–	inconclusive: 21.9 µM [cytotoxic]
CS(=O)(=O)c1ccc(-c2cn3ccccc3n2)cc1	–	inconclusive: 9.52 µM [cytotoxic, full curve]
CNC(=O)c1cc(Oc2ccc(NC(=O)Nc3ccc(Cl)c(C(F)(F)F)c3)cc2)ccn1	–	inconclusive: 26.8 µM [cytotoxic, single point]
CC(C)c1ccc2c(c1)CC[C@H]1[C@](C)(CN)CCC[C@]21C	–	active: 21.9 µM
CCCCC1C(=O)N(c2ccccc2)N(c2ccc(O)cc2)C1=O (stereo not given)	–	inconclusive: 26.8 µM [cytotoxic, single point]
CC1CCCCN1CCCOC(=O)c1ccc(OC2CCCCC2)cc1 (stereo not given)	–	inconclusive: 0.477 µM [cytotoxic, full curve]
NC(=O)c1nc(-c2cccc(-c3cc(F)ccc3OCC(F)(F)C(F)(F)F)c2)n[nH]1	–	inconclusive: 61.6 µM [cytotoxic, single point]
CCCOC(=O)c1ccc(O)cc1	–	inconclusive: 61.6 µM [cytotoxic, partial curve, poor fit]
CCC(=O)O[C@H]1[C@H](O[C@@H]2[C@@H](C)[C@H](O[C@H]3C[C@@](C)(OC)[C@@H](O)[C@H](C)O3)[C@@H](C)C(=O)O[C@H](CC)[C@@](C)(O)[C@H](O)[C@@H](C)C(=O)[C@H](C)C[C@@]2(C)O)O[C@H](C)C[C@@H]1N(C)C	–	inconclusive: 7.27 µM [cytotoxic, full curve]
CCCCN(CCCC)c1ccc(C(=O)c2ccccc2C(=O)O)c(O)c1	–	inconclusive: 27.8 µM [cytotoxic, partial curve]
CN(C)CCC=C1c2ccccc2C=Cc2ccccc21	–	inconclusive: 9.52 µM [cytotoxic, partial curve]
NC(N)=NN=C(/C=C/c1ccc([N+](=O)[O-])o1)/C=C/c1ccc([N+](=O)[O-])o1	–	active: 8.49 µM
CCCCOC(O)CC (stereo not given)	–	inconclusive: 5.49 µM [rising, full curve, poor fit]
O=C1Cc2ccccc2N1c1c(Cl)cccc1Cl	–	inconclusive: 17.4 µM [cytotoxic, partial curve, poor fit]
CNC(=O)c1ccccc1Sc1ccc2c(/C=C/c3ccccn3)n[nH]c2c1	–	inconclusive: 26.8 µM [cytotoxic, single point]
CCCCCCCCCCCCCC[n+]1ccccc1	–	active: 12.3 µM
Cc1ccc2c(Br)cc(Br)c(O)c2n1	–	active: 26.8 µM
NC(=Nc1ccccc1)Nc1ccccc1	–	inactive

Compound	activity change, negative = cytotoxicity	Potency
CC#C[C@]1(O)CC[C@H]2[C@@H]3CCC4=CC(=O)CCC4=C3[C@@H](c3ccc(N(C)C)cc3)C[C@@]21C	–	inconclusive: 0.0087 µM [cytotoxic, full curve]
N#[N+]c1ccc2c(S(=O)(=O)[O-])cccc2c1O	inactive: -4.39%	–
CC(=O)N/N=C/c1ccc([N+](=O)[O-])o1	inactive: -11.8% [at 35.3 µM]	–
O=C(OCc1ccccc1)c1ccccc1	–	inactive
CC(C(O)c1ccccc1)N(C)CCOC(c1ccccc1)c1ccccc1 (stereo not given)	–	inconclusive: 21.3 µM [cytotoxic, partial curve]
O=C(O)Cc1cc(I)c(Oc2cc(I)c(O)c(I)c2)c(I)c1	–	inconclusive: 30.3 µM [rising, partial curve]
NNCCc1ccccc1	–	inconclusive: 24.6 µM [cytotoxic, partial curve]
CN(C)CCCN1c2ccccc2Sc2ccc(C(F)(F)F)cc21	–	inconclusive: 16.9 µM [cytotoxic, partial curve]
O=C(O)CCCCCCCCCCCBr	–	inconclusive: 34.8 µM [cytotoxic, partial curve, poor fit]
c1ccc(CCCc2ccncc2)cc1	inactive: -0.267%	–
NCCO	–	inconclusive: 17.4 µM [rising, partial curve, poor fit]
C=CC(=O)OCCn1c(=O)n(CCOC(=O)C=C)c(=O)n(CCOC(=O)C=C)c1=O	–	active: 24.5 µM
Nc1ccc([N+](=O)[O-])cc1O	–	inconclusive: 15.5 µM [rising, partial curve, poor fit]
Nc1ncnc2c1ncn2[C@@H]1O[C@H](COP(=O)(O)O)[C@@H](O)[C@H]1O	–	inconclusive: 23.9 µM [cytotoxic]
Cc1ccc(N)cc1O	–	inconclusive: 49 µM [cytotoxic]
CC(C)(COC(=O)c1ccccc1)COC(=O)c1ccccc1	inactive: -0.494%	–
Cc1ccccc1Br	–	inconclusive: 48.6 µM [rising, partial curve, poor fit]
C=C(C)C(=O)OCC(CC)(COC(=O)C(=C)C)COC(=O)C(=C)C	–	inactive
CN1CCCC(CC2c3ccccc3Sc3ccccc32)C1 (stereo not given)	–	inconclusive: 10.7 µM [cytotoxic, partial curve]
CC/C=C\C/C=C\C/C=C\CCCCCCCC(=O)O	–	inconclusive: 21.7 µM [cytotoxic, partial curve, poor fit] and inconclusive: 15.5 µM [cytotoxic, full curve]
